# In the supplement of paper PMC8728848:
# Some of the results follow.
# B1: Als3-N (Candida albicans) (protein)
# chain: KTITGVFNSFNSLTWSNAATYNYKGPGTPTWNAVLGWSLDGTSASPGDTFTLNMPCVFKFTTSQTSVDLTAHGVKYATCQFQAGEEFMTFSTLTCTVSNTLTPSIKALGTVTLPLAFNVGGTGSSVDLEDSKCFTAGTNTVTFNDGGKKISINVDFERSNVDPKGYLTDSRVIPSLNKVSTLFVAPQCANGYTSGTMGFANTYGDVQIDCSNIHVGITKGLNDWNYPVSSESFSYTKTCSSNGIFITYKNVPAGYRPFVDAYISATDVNSYTLSYANEYTCAGGYWQRAPFTLRWTGYRNSDAGSNGIVIVATTRTVTDSTTAVTTLPFDPNRDKTKTIEILKPIPTTTITTSYVGVTTSYLTKTAPIGETATVIVDIPYHTTTTVTSKWTGTITSTTTHTNPTDSIDTVIVQVP
# Columns and labels:
# Experiment in all cases: glycan array binding signal (z-score within array); higher = stronger binding
# Conditions in all cases: glycan notation: IUPAC condensed, linker removed
# [1] = target: GlcNAc(a1-6)Gal(b1-4)GlcNAc
# Outline: (§1)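 The binding signal is a Z-score computed within each array and averaged over linkers. Arrays of the same protein sequence at different concentrations or buffers were also averaged together. Data originate from 3228 arrays in the Consortium for Functional Glycomics database, kept only where the protein sequence was available.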
# [2] = target: GlcNAc(b1-2)Gal(b1-3)GalNAc
# Outline: as §1
# [3] = target: GlcNAc(b1-2)Man(a1-3)[GlcNAc(b1-2)Man(a1-6)]Man(b1-4)GlcNAc(b1-4)GlcNAc
# Outline: as §1
# [4] = target: GlcNAc(b1-2)Man(a1-3)[GlcNAc(b1-2)Man(a1-6)]Man(b1-4)GlcNAc(b1-4)[Fuc(a1-6)]GlcNAc
# Outline: as §1
# [5] = target: GlcNAc(b1-2)Man(a1-3)[GlcNAc(b1-4)][GlcNAc(b1-2)Man(a1-6)]Man(b1-4)GlcNAc(b1-4)GlcNAc
# Outline: as §1
# [6] = target: GlcNAc(b1-2)Man(a1-3)[GlcNAc(b1-4)][GlcNAc(b1-2)Man(a1-6)]Man(b1-4)GlcNAc(b1-4)[Fuc(a1-6)]GlcNAc
# Outline: as §1
# [7] = target: GlcNAc(b1-2)[GlcNAc(b1-4)]Man(a1-3)[GlcNAc(b1-2)Man(a1-6)]Man(b1-4)GlcNAc(b1-4)GlcNAc
# Outline: as §1
# [8] = target: GlcNAc(b1-2)[GlcNAc(b1-4)]Man(a1-3)[GlcNAc(b1-4)][GlcNAc(b1-2)Man(a1-6)]Man(b1-4)GlcNAc(b1-4)GlcNAc
# Outline: as §1
# [9] = target: GlcNAc(b1-2)[GlcNAc(b1-4)]Man(a1-3)[GlcNAc(b1-4)][GlcNAc(b1-2)[GlcNAc(b1-6)]Man(a1-6)]Man(b1-4)GlcNAc(b1-4)GlcNAc
# Outline: as §1
# [10] = target: GlcNAc(b1-2)[GlcNAc(b1-4)]Man(a1-3)[GlcNAc(b1-4)][GlcNAc(b1-2)[GlcNAc(b1-6)]Man(a1-6)]Man(b1-4)GlcNAc(b1-4)[Fuc(a1-6)]GlcNAc
# Outline: as §1
# [11] = target: GlcNAc(b1-2)[GlcNAc(b1-6)]Man(a1-6)[GlcNAc(b1-2)Man(a1-3)]Man(b1-4)GlcNAc(b1-4)GlcNAc
# Outline: as §1
# [12] = target: GlcNAc(b1-2)[GlcNAc(b1-6)]Man(a1-6)[GlcNAc(b1-2)Man(a1-3)]Man(b1-4)GlcNAc(b1-4)[Fuc(a1-6)]GlcNAc
# Outline: as §1
# [13] = target: GlcNAc(b1-2)[GlcNAc(b1-6)]Man(a1-6)[GlcNAc(b1-4)][GlcNAc(b1-2)Man(a1-3)]Man(b1-4)GlcNAc(b1-4)GlcNAc
# Outline: as §1
# GlcNAc(b1-3)Fuc = target: GlcNAc(b1-3)Fuc
# Outline: as §1
# GlcNAc(b1-3)Gal = target: GlcNAc(b1-3)Gal
# Outline: as §1
# [14] = target: GlcNAc(b1-3)Gal(b1-3)GalNAc
# Outline: as §1
# GlcNAc(b1-3)Gal(b1-4)Glc = target: GlcNAc(b1-3)Gal(b1-4)Glc
# Outline: as §1
# [15] = target: GlcNAc(b1-3)Gal(b1-4)GlcNAc
# Outline: as §1
# [16] = target: GlcNAc(b1-3)Gal(b1-4)GlcNAc(b1-2)Man(a1-3)[GlcNAc(b1-3)Gal(b1-4)GlcNAc(b1-2)Man(a1-6)]Man(b1-4)GlcNAc(b1-4)GlcNAc
# Outline: as §1
# [17] = target: GlcNAc(b1-3)Gal(b1-4)GlcNAc(b1-2)Man(a1-3)[GlcNAc(b1-3)Gal(b1-4)GlcNAc(b1-2)Man(a1-6)]Man(b1-4)GlcNAc(b1-4)[Fuc(a1-6)]GlcNAc
# Outline: as §1
# [18] = target: GlcNAc(b1-3)Gal(b1-4)GlcNAc(b1-2)[GlcNAc(b1-3)Gal(b1-4)GlcNAc(b1-6)]Man(a1-6)[GlcNAc(b1-3)Gal(b1-4)GlcNAc(b1-2)Man(a1-3)]Man(b1-4)GlcNAc(b1-4)GlcNAc
# Outline: as §1
# [19] = target: GlcNAc(b1-3)Gal(b1-4)GlcNAc(b1-3)Gal(b1-4)GlcNAc
# Outline: as §1
# [20] = target: GlcNAc(b1-3)Gal(b1-4)GlcNAc(b1-3)Gal(b1-4)GlcNAc(b1-2)Man(a1-3)[GlcNAc(b1-3)Gal(b1-4)GlcNAc(b1-3)Gal(b1-4)GlcNAc(b1-2)Man(a1-6)]Man(b1-4)GlcNAc(b1-4)GlcNAc
# Outline: as §1
# [21] = target: GlcNAc(b1-3)Gal(b1-4)GlcNAc(b1-3)Gal(b1-4)GlcNAc(b1-2)Man(a1-3)[GlcNAc(b1-3)Gal(b1-4)GlcNAc(b1-3)Gal(b1-4)GlcNAc(b1-2)Man(a1-6)]Man(b1-4)GlcNAc(b1-4)[Fuc(a1-6)]GlcNAc
# Outline: as §1
# [22] = target: GlcNAc(b1-3)Gal(b1-4)GlcNAc(b1-3)Gal(b1-4)GlcNAc(b1-2)[GlcNAc(b1-3)Gal(b1-4)GlcNAc(b1-3)Gal(b1-4)GlcNAc(b1-6)]Man(a1-6)[GlcNAc(b1-3)Gal(b1-4)GlcNAc(b1-3)Gal(b1-4)GlcNAc(b1-2)Man(a1-3)]Man(b1-4)GlcNAc(b1-4)[Fuc(a1-6)]GlcNAc
# Outline: as §1
# [23] = target: GlcNAc(b1-3)Gal(b1-4)GlcNAc(b1-3)Gal(b1-4)GlcNAc(b1-3)Gal(b1-4)GlcNAc(b1-2)Man(a1-3)[GlcNAc(b1-3)Gal(b1-4)GlcNAc(b1-3)Gal(b1-4)GlcNAc(b1-3)Gal(b1-4)GlcNAc(b1-2)Man(a1-6)]Man(b1-4)GlcNAc(b1-4)GlcNAc
# Outline: as §1
# [24] = target: GlcNAc(b1-3)Gal(b1-4)GlcNAc(b1-3)Gal(b1-4)GlcNAc(b1-3)Gal(b1-4)GlcNAc(b1-2)Man(a1-3)[GlcNAc(b1-3)Gal(b1-4)GlcNAc(b1-3)Gal(b1-4)GlcNAc(b1-3)Gal(b1-4)GlcNAc(b1-2)Man(a1-6)]Man(b1-4)GlcNAc(b1-4)[Fuc(a1-6)]GlcNAc
# Outline: as §1
# [25] = target: GlcNAc(b1-3)Gal(b1-4)GlcNAc(b1-3)Gal(b1-4)GlcNAc(b1-3)Gal(b1-4)GlcNAc(b1-2)[GlcNAc(b1-3)Gal(b1-4)GlcNAc(b1-3)Gal(b1-4)GlcNAc(b1-3)Gal(b1-4)GlcNAc(b1-6)]Man(a1-6)[GlcNAc(b1-3)Gal(b1-4)GlcNAc(b1-3)Gal(b1-4)GlcNAc(b1-3)Gal(b1-4)GlcNAc(b1-2)Man(a1-3)]Man(b1-4)GlcNAc(b1-4)[Fuc(a1-6)]GlcNAc
# Outline: as §1
# [26] = target: GlcNAc(b1-3)Gal(b1-4)GlcNAc(b1-3)Gal(b1-4)GlcNAc(b1-3)Gal(b1-4)GlcNAc(b1-3)Gal(b1-4)GlcNAc(b1-2)Man(a1-3)[GlcNAc(b1-3)Gal(b1-4)GlcNAc(b1-3)Gal(b1-4)GlcNAc(b1-3)Gal(b1-4)GlcNAc(b1-3)Gal(b1-4)GlcNAc(b1-2)Man(a1-6)]Man(b1-4)GlcNAc(b1-4)GlcNAc
# Outline: as §1
# [27] = target: GlcNAc(b1-3)Gal(b1-4)GlcNAc(b1-3)Gal(b1-4)GlcNAc(b1-3)Gal(b1-4)GlcNAc(b1-3)Gal(b1-4)GlcNAc(b1-2)Man(a1-3)[GlcNAc(b1-3)Gal(b1-4)GlcNAc(b1-3)Gal(b1-4)GlcNAc(b1-3)Gal(b1-4)GlcNAc(b1-3)Gal(b1-4)GlcNAc(b1-2)Man(a1-6)]Man(b1-4)GlcNAc(b1-4)[Fuc(a1-6)]GlcNAc
# Outline: as §1
# [28] = target: GlcNAc(b1-3)Gal(b1-4)GlcNAc(b1-3)Gal(b1-4)GlcNAc(b1-3)Gal(b1-4)GlcNAc(b1-3)Gal(b1-4)GlcNAc(b1-2)[GlcNAc(b1-3)Gal(b1-4)GlcNAc(b1-3)Gal(b1-4)GlcNAc(b1-3)Gal(b1-4)GlcNAc(b1-3)Gal(b1-4)GlcNAc(b1-6)]Man(a1-6)[GlcNAc(b1-3)Gal(b1-4)GlcNAc(b1-3)Gal(b1-4)GlcNAc(b1-3)Gal(b1-4)GlcNAc(b1-3)Gal(b1-4)GlcNAc(b1-2)Man(a1-3)]Man(b1-4)GlcNAc(b1-4)[Fuc(a1-6)]GlcNAc
# Outline: as §1
# [29] = target: GlcNAc(b1-3)Gal(b1-4)GlcNAc(b1-3)Gal(b1-4)GlcNAc(b1-3)GalNAc
# Outline: as §1
# [30] = target: GlcNAc(b1-3)Gal(b1-4)GlcNAc(b1-3)GalNAc
# Outline: as §1
# [31] = target: GlcNAc(b1-3)Gal(b1-4)GlcNAc(b1-3)[GlcNAc(b1-3)Gal(b1-4)GlcNAc(b1-3)]GalNAc
# Outline: as §1
# [32] = target: GlcNAc(b1-3)Gal(b1-4)GlcNAc(b1-6)[Gal(b1-3)]GalNAc
# Outline: as §1
# [33] = target: GlcNAc(b1-3)Gal(b1-4)GlcNAc(b1-6)[GlcNAc(b1-3)Gal(b1-3)]GalNAc
# Outline: as §1
# [34] = target: GlcNAc(b1-3)Gal(b1-4)GlcNAc(b1-6)[GlcNAc(b1-3)]Gal(b1-4)GlcNAc
# Outline: as §1
# GlcNAc(b1-3)GalNAc = target: GlcNAc(b1-3)GalNAc
# Outline: as §1
# GlcNAc(b1-3)Man = target: GlcNAc(b1-3)Man
# Outline: as §1
# [35] = target: GlcNAc(b1-3)[GlcNAc(b1-4)][GlcNAc(b1-6)]GlcNAc
# Outline: as §1
# [36] = target: GlcNAc(b1-3)[GlcNAc(b1-6)]Gal(b1-4)GlcNAc
# Outline: as §1
# [37] = target: GlcNAc(b1-3)[GlcNAc(b1-6)]GalNAc
# Outline: as §1
# [38] = target: GlcNAc(b1-4)Gal(b1-4)GlcNAc
# Outline: as §1
# GlcNAc(b1-4)GlcNAc = target: GlcNAc(b1-4)GlcNAc
# Outline: as §1
# [39] = target: GlcNAc(b1-4)GlcNAc(b1-4)GlcNAc
# Outline: as §1
binder,measurement,setting,value
B1,glycan array binding signal (z-score),[1],-0.233
same,glycan array binding signal (z-score),[2],-0.234
same,glycan array binding signal (z-score),[3],-0.283
same,glycan array binding signal (z-score),[4],-0.12
same,glycan array binding signal (z-score),[5],-0.281
same,glycan array binding signal (z-score),[6],-0.229
same,glycan array binding signal (z-score),[7],-0.262
same,glycan array binding signal (z-score),[8],-0.205
same,glycan array binding signal (z-score),[9],-0.419
same,glycan array binding signal (z-score),[10],0.63
same,glycan array binding signal (z-score),[11],-0.248
same,glycan array binding signal (z-score),[12],-0.132
same,glycan array binding signal (z-score),[13],-0.17
same,glycan array binding signal (z-score),GlcNAc(b1-3)Fuc,0.444
same,glycan array binding signal (z-score),GlcNAc(b1-3)Gal,-0.306
same,glycan array binding signal (z-score),[14],0.556
same,glycan array binding signal (z-score),GlcNAc(b1-3)Gal(b1-4)Glc,-0.303
same,glycan array binding signal (z-score),[15],-0.277
same,glycan array binding signal (z-score),[16],-0.213
same,glycan array binding signal (z-score),[17],-0.099
same,glycan array binding signal (z-score),[18],0.753
same,glycan array binding signal (z-score),[19],-0.449
same,glycan array binding signal (z-score),[20],3.11
same,glycan array binding signal (z-score),[21],0.106
same,glycan array binding signal (z-score),[22],2.36
same,glycan array binding signal (z-score),[23],-0.109
same,glycan array binding signal (z-score),[24],0.254
same,glycan array binding signal (z-score),[25],3.08
same,glycan array binding signal (z-score),[26],-0.115
same,glycan array binding signal (z-score),[27],0.273
same,glycan array binding signal (z-score),[28],0.074
same,glycan array binding signal (z-score),[29],-0.182
same,glycan array binding signal (z-score),[30],0.072
same,glycan array binding signal (z-score),[31],0.158
same,glycan array binding signal (z-score),[32],-0.116
same,glycan array binding signal (z-score),[33],0.124
same,glycan array binding signal (z-score),[34],-0.082
same,glycan array binding signal (z-score),GlcNAc(b1-3)GalNAc,-0.046
same,glycan array binding signal (z-score),GlcNAc(b1-3)Man,-0.197
same,glycan array binding signal (z-score),[35],-0.289
same,glycan array binding signal (z-score),[36],-0.324
same,glycan array binding signal (z-score),[37],-0.033
same,glycan array binding signal (z-score),[38],-0.165
same,glycan array binding signal (z-score),GlcNAc(b1-4)GlcNAc,-0.22
same,glycan array binding signal (z-score),[39],-0.099
